Assay results from the supplement of paper PMC12217912.
This is one part of the list. The full chains were built here from the parent and the listed change. Inactive controls read about 0.05.

B1: TEV protease; numbered along this chain (parent)
chain: MGESLFKGPRDYNPISSSICHLTNESDGHTTSLYGIGFGPFIITNKHLFRRNNGTLVVQSLHGVFKVKDTTTLQQHLVDGRDMIIIRMPKDFPPFPQKLKFREPQREERICLVTTNFQTKSMSSMVSDTSCTFPSGDGIFWKHWIQTKDGQCGSPLVSTRDGFIVGIHSASNFTNTNNYFTSVPKNFMELLTNQEAQQWVSGWRLNADSVLWGGHKVFMVKPEEPFQPVKEATQL

Variants of: B1
Test: raw area under fraction-flipped curve 0-4 h after induction (AUC4h, not background-subtracted), DNA-recorder readout of cleavage of the substrate (dimensionless); higher = more cleavage of the substrate by the protease variant
Conditions: temperature: 34 °C; time window: 0-4 h after rhamnose induction
Method: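 In vivo DNA recorder in E. coli TOP10(DE3) ΔrhaA at 34 °C. Each TEVp single-site mutant (parent TEVp 0) is paired with a single-site variant of the 7-mer TEVs (canonical ENLYFQ|S). The substrate sits between flexible linkers in a Bxb1-sfGFP-TEVs-SsrA fusion, so cleavage stabilises Bxb1 and speeds flipping of a recombination array, read by NGS. The value is the raw area under the fraction-flipped curve over 0-4 h after rhamnose induction (AUC4h), with ≥20 reads per time point. It is not background-subtracted; inactive controls average about 0.047.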
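Also: Bxb1 expression induced with 0.2% (w/v) L-rhamnose at OD600 near 0.5, cultures sampled hourly, flipped fraction per protease–substrate barcode pair counted by paired-end Illumina sequencing.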

Variant | area with substrate ENAYFQS | area with substrate ENCYFQS | area with substrate ENDYFQS | area with substrate ENFYFQS | area with substrate ENGYFQS | area with substrate ENHYFQS | area with substrate ENIYFQS | area with substrate ENMYFQS | area with substrate ENNYFQS | area with substrate ENPYFQS | area with substrate ENQYFQS | area with substrate ENRYFQS | area with substrate ENSYFQS | area with substrate ENTYFQS | area with substrate ENVYFQS | area with substrate ENWYFQS | area with substrate ENKYFQS | area with substrate ENYYFQS | area with substrate ENEYFQS
V220G | 0.0446 | 0.0703 | 0.0563 | 0.0694 | 0.0313 | 0.0624 | 0.119 | 0.0889 | 0.0593 | 0.0909 | 0.0594 | 0.0563 | 0.0633 | 0.0699 | 0.0826 | 0.0406 | – | – | –
K221L | 0.0493 | 0.0523 | 0.0492 | – | 0.0707 | 0.052 | 0.124 | 0.0627 | 0.0608 | 0.0701 | 0.0543 | 0.0606 | 0.0519 | 0.0566 | 0.0685 | 0.0565 | 0.132 | 0.0644 | –
K221S | 0.0622 | – | 0.0545 | 0.0815 | 0.0539 | 0.0362 | – | 0.0563 | 0.0665 | 0.0502 | 0.0587 | 0.0499 | 0.0588 | 0.0859 | – | – | 0.0619 | – | 0.0714
P222A | 0.0522 | 0.0643 | – | 0.0814 | 0.0524 | – | – | 0.0608 | – | 0.0591 | 0.0588 | – | 0.0637 | – | – | – | 0.0621 | 0.0547 | 0.0587
P222I | 0.0624 | 0.0594 | 0.0738 | 0.0187 | – | – | 0.0788 | – | – | – | 0.0508 | – | 0.0592 | 0.0627 | 0.0404 | – | 0.0689 | – | 0.0661
E223N | 0.0938 | 0.0597 | 0.0669 | 0.0749 | 0.0832 | 0.0487 | 0.0419 | 0.0807 | 0.0656 | – | 0.0568 | – | 0.067 | 0.0612 | 0.0706 | 0.009 | 0.0644 | – | 0.061
E223Y | 0.06 | 0.0786 | 0.0634 | – | – | 0.0673 | 0.113 | 0.0615 | – | 0.0546 | 0.0629 | 0.0669 | 0.0552 | 0.0605 | 0.0647 | – | 0.0694 | 0.0571 | 0.0613
P225C | 0.078 | 0.0532 | – | – | 0.0616 | 0.054 | 0.0847 | 0.091 | 0.0595 | – | 0.0546 | – | 0.0971 | 0.0602 | 0.0899 | – | – | – | –
P225K | 0.0674 | 0.079 | 0.0593 | – | 0.0585 | 0.0527 | 0.135 | – | – | – | 0.0587 | – | 0.0585 | 0.0561 | 0.0592 | – | 0.0665 | – | 0.0555
F226E | 0.0623 | – | 0.0575 | 0.0641 | 0.0716 | – | 0.101 | 0.0884 | 0.0745 | 0.0553 | 0.0592 | 0.0502 | 0.0624 | – | 0.076 | – | – | 0.0651 | 0.0661
F226G | 0.0628 | – | 0.0705 | 0.0467 | 0.0647 | – | – | – | 0.0535 | 0.0625 | 0.0601 | 0.0662 | 0.0844 | – | 0.0793 | – | 0.0597 | 0.053 | 0.072
Q227W | 0.0668 | 0.0451 | 0.0683 | – | 0.0649 | 0.0685 | – | – | 0.081 | – | 0.0646 | – | 0.0684 | 0.0537 | 0.0767 | 0.0402 | 0.0732 | 0.0558 | 0.0414
V229E | 0.062 | 0.0829 | 0.0713 | 0.0686 | 0.0493 | – | – | – | 0.0677 | 0.0535 | 0.0614 | – | 0.0611 | 0.0655 | – | 0.0555 | – | 0.0678 | 0.0615
V229Q | 0.064 | 0.0746 | 0.0623 | – | 0.0516 | 0.0699 | – | 0.104 | 0.0516 | 0.0571 | 0.0669 | 0.0836 | 0.0728 | 0.0602 | 0.0901 | – | 0.0706 | – | –
E231V | 0.07 | – | 0.0498 | 0.0515 | 0.0642 | – | 0.107 | – | 0.0617 | – | 0.0493 | 0.0796 | 0.0755 | – | 0.0761 | – | 0.066 | 0.0539 | 0.0362
T233E | 0.0444 | – | 0.0466 | – | 0.0482 | – | 0.115 | 0.0798 | 0.068 | 0.0516 | 0.0631 | 0.0555 | 0.0573 | – | – | 0.0541 | 0.0861 | – | 0.0558
T233M | 0.0546 | 0.0889 | 0.0498 | 0.0461 | 0.0658 | 0.0632 | 0.102 | 0.0641 | 0.0594 | 0.0627 | 0.0681 | 0.0654 | – | – | – | 0.058 | 0.0624 | – | 0.068
T233Q | 0.0597 | – | 0.0644 | – | 0.0638 | – | 0.0983 | – | 0.0642 | – | 0.0573 | – | 0.0629 | 0.0677 | 0.0898 | – | – | 0.0708 | –
Q234V | 0.076 | – | 0.0611 | 0.0692 | – | 0.0644 | – | 0.0596 | – | 0.0422 | 0.064 | – | 0.053 | 0.0579 | 0.0778 | – | – | 0.0637 | 0.0712
L235Q | 0.0542 | 0.0548 | 0.0498 | 0.0569 | 0.071 | 0.0589 | – | – | 0.078 | – | 0.0682 | – | – | 0.0563 | 0.084 | – | 0.0693 | – | –
S4Y | – | 0.0359 | 0.0555 | – | 0.0581 | – | 0.0822 | – | 0.0552 | 0.0489 | 0.0566 | – | 0.071 | – | 0.0825 | – | 0.0616 | 0.0466 | –
D11F | – | 0.0725 | 0.0608 | 0.0756 | 0.0627 | 0.0371 | 0.175 | 0.079 | 0.0669 | – | 0.0608 | 0.0598 | – | 0.0733 | 0.0853 | – | – | 0.0393 | 0.0555
F38K | – | 0.0594 | 0.0583 | 0.0503 | 0.0729 | – | – | 0.043 | 0.061 | – | 0.0487 | 0.052 | 0.0528 | – | 0.0516 | 0.0382 | 0.0465 | – | 0.0512
F41G | – | 0.0485 | – | 0.038 | 0.0359 | 0.0519 | 0.0927 | 0.0724 | 0.0558 | 0.0552 | 0.0519 | 0.0474 | 0.0672 | 0.045 | 0.0478 | 0.0403 | 0.0429 | 0.0518 | 0.0453
N53D | – | 0.0634 | 0.0616 | 0.0646 | 0.0655 | – | – | – | 0.0721 | 0.0513 | 0.0629 | 0.0169 | 0.0886 | 0.0705 | – | 0.021 | 0.0884 | 0.0453 | 0.0635
L73Q | – | 0.0579 | 0.0315 | – | 0.0525 | 0.043 | – | – | 0.0627 | 0.056 | 0.05 | 0.0466 | 0.0581 | 0.0603 | 0.0628 | – | – | – | 0.0509
